Results reported in the supplement of paper PMC4967469.
The IC50 comes from the fitted curve, where viability falls to half of the control; where the fit passes the top or lowest dose, that dose stands as a limit. AUC, from the same fit, is the share of area under the viability curve across the 256-fold dose range; it is 1 without any effect and falls as sensitivity rises. For some of these results: A top dose marked as inferred was calculated from the reported fits.

What was measured:
Test in all cases: Viability of human cancer cell lines after 72 h of drug (GDSC screen)
Bosutinib = compound: COc1cc(Nc2c(C#N)cnc3cc(OCCCN4CCN(C)CC4)c(OC)cc23)c(Cl)cc1Cl [Bosutinib]; settings: top dose 2 µM
Procedure: (§1)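 Human cancer cell lines in 384-well plates, medium with 10% serum, drug for 72 h over a 256-fold dose range (nine 2-fold or five 4-fold steps up to the top dose). Adherent lines were fixed and stained with the nucleic acid dye Syto60, suspension lines read with resazurin; signal relative to control wells, capped at 0 and 100%. One two-parameter sigmoid per drug and line, fitted in a mixed model over all curves with the slope shared within a line.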

NVP-BHG712 = compound: Cc1ccc(C(=O)Nc2cccc(C(F)(F)F)c2)cc1Nc1nc(-c2cccnc2)nc2c1cnn2C [NVP-BHG712]; settings: top dose 10.24 µM; top dose inferred
Procedure: as §1

Mitomycin C = compound: CO[C@@]12[C@H](COC(N)=O)C3=C(C(=O)C(C)=C(N)C3=O)N1C[C@@H]1N[C@@H]12 [Mitomycin C]; settings: top dose 16 µM
Procedure: as §1

IOX2 = compound: O=C(O)CNC(=O)c1c(O)c2ccccc2n(Cc2ccccc2)c1=O [IOX2]; settings: top dose 0.1 µM; top dose inferred
Procedure: as §1

Midostaurin = compound: CO[C@@H]1[C@H](N(C)C(=O)c2ccccc2)C[C@H]2O[C@]1(C)n1c3ccccc3c3c4c(c5c6ccccc6n2c5c31)C(=O)NC4 [Midostaurin]; settings: top dose 0.512 µM; top dose inferred
Procedure: as §1

Row | Cell Line | AUC (Bosutinib) | IC50 (Bosutinib) [nM] | AUC (NVP-BHG712) | IC50 (NVP-BHG712) [nM] | AUC (Mitomycin C) | AUC (IOX2) | IC50 (IOX2) [nM] | AUC (Midostaurin) | IC50 (Midostaurin) [nM] | IC50 (Mitomycin C) [nM]
1 | HuH-7 (liver, adherent) | 0.977 | > 2000 | 0.959 | > 10200 | 0.609 | 0.984 | > 100 |  |  | 
2 | NCI-H1573 (lung adenocarcinoma, adherent) |  |  | 0.98 | > 10200 | 0.635 | 0.988 | > 100 | 0.987 | > 512 | 2340
3 | SW156 (kidney, adherent) |  |  | 0.917 | > 10200 | 0.432 | 0.983 | > 100 | 0.841 | 417 | 636
4 | MDA-MB-157 (breast, adherent) |  |  | 0.987 | > 10200 | 0.627 | 0.965 | > 100 | 0.803 | 263 | 2250
5 | MKN1 (stomach, adherent) |  |  | 0.933 | > 10200 | 0.406 | 0.984 | > 100 | 0.868 | 512 | 
6 | SW1088 (glioma, adherent) |  |  | 0.923 | > 10200 | 0.684 | 0.979 | > 100 | 0.764 | 240 | 3830
7 | DAN-G (pancreas, adherent) | 0.988 | > 2000 | 0.971 | > 10200 | 0.673 | 0.991 | > 100 |  |  | 2840
8 | NCI-H226 (lung squamous cell carcinoma, adherent) | 0.987 | > 2000 | 0.841 | 7670 | 0.448 | 0.94 | > 100 |  |  | 
9 | HCC202 (breast, adherent) | 0.981 | > 2000 | 0.939 | > 10200 | 0.626 | 0.977 | > 100 |  |  | 2560
10 | MDA-MB-468 (breast, adherent) | 0.943 | > 2000 | 0.978 | > 10200 | 0.331 | 0.987 | > 100 |  |  | 
11 | HO-1-N-1 (head and neck, adherent) |  |  | 0.984 | > 10200 | 0.356 | 0.987 | > 100 | 0.941 | > 512 | 414
12 | BCPAP (thyroid, adherent) |  |  | 0.838 | 6010 | 0.299 | 0.988 | > 100 | 0.822 | 263 | 289
13 | NCI-H2030 (lung adenocarcinoma, adherent) |  |  | 0.871 | > 10200 | 0.298 | 0.981 | > 100 |  |  | 247
14 | CAL-54 (kidney, adherent) |  |  | 0.874 | > 10200 | 0.565 | 0.983 | > 100 | 0.781 | 245 | 1540
15 | NCI-H196 (small cell lung carcinoma, adherent) |  |  | 0.981 | > 10200 | 0.685 | 0.987 | > 100 | 0.988 | > 512 | 3390
16 | EKVX (lung adenocarcinoma, adherent) | 0.894 | > 2000 | 0.959 | > 10200 | 0.52 | 0.965 | > 100 |  |  | 1200
17 | VM-CUB-1 (bladder, adherent) |  |  | 0.984 | > 10200 | 0.3 | 0.983 | > 100 | 0.891 | > 512 | 280
18 | PANC-10-05 (pancreas, adherent) |  |  | 0.964 | > 10200 | 0.218 | 0.979 | > 100 | 0.821 | 412 | 114
19 | OVCAR-5 (ovary, adherent) | 0.938 | > 2000 | 0.942 | > 10200 | 0.397 | 0.977 | > 100 |  |  | 
20 | HCE-4 (oesophagus, adherent) |  |  | 0.992 | > 10200 | 0.152 | 0.991 | > 100 | 0.868 | 358 | 107
21 | NUGC-3 (stomach, adherent) |  |  | 0.955 | > 10200 | 0.108 | 0.982 | > 100 | 0.914 | > 512 | < 62.5
22 | KYSE-180 (oesophagus, adherent) |  |  | 0.891 | > 10200 | 0.24 | 0.987 | > 100 | 0.892 | > 512 | 185
23 | H3255 (lung adenocarcinoma, adherent) | 0.695 | 496 | 0.966 | > 10200 | 0.387 | 0.982 | > 100 |  |  | 459
24 | SK-MEL-2 (melanoma, adherent) | 0.802 | 1030 | 0.987 | > 10200 | 0.702 | 0.986 | > 100 |  |  | 3810
25 | SK-MEL-28 (melanoma, adherent) |  |  | 0.742 | 3100 | 0.812 | 0.843 | 68.9 |  |  | 8370
26 | IM-95 (stomach, adherent) |  |  | 0.817 | 6200 | 0.356 | 0.984 | > 100 | 0.831 | 355 | 388
27 | BICR31 (head and neck, adherent) |  |  | 0.985 | > 10200 | 0.401 |  |  | 0.859 | 432 | 534
28 | HPAC (pancreas, adherent) |  |  | 0.789 | 6710 | 0.412 | 0.976 | > 100 | 0.863 | > 512 | 519
29 | MFE-319 (endometrium, adherent) |  |  | 0.945 | > 10200 | 0.45 | 0.976 | > 100 | 0.918 | > 512 | 733
30 | H2804 (mesothelioma, adherent) |  |  | 0.965 | > 10200 | 0.163 | 0.952 | > 100 | 0.888 | > 512 | 81.4
